Assay results as given in patent US7041851B2, “Fluorinated phenyl thiophenyl derivatives and their use for imaging serotonin transporters” (The Trustees of the University of Pennsylvania, priority 2002, dated 2006).
Values belong to the compound of their own block, whether it stands above or below them.

Experiments:
[1] = target: T1, SERT (serotonin transporter) (Rattus norvegicus, UniProt P31652); assay: In vitro binding assay, LLC-PK1 cell membranes overexpressing SERT, [125I]IDAM; details: for Binding affinity and selectivity: SERT versus DAT, NET
T1 construct: expressed in transfected cells; host or cells: LLC-PK1
Description: (§1) However, it metabolized rapidly in the blood.
(§2) In an in vitro binding assay using LLC-PK1 cells over expressing three different types of monoamine transporters (SERT, DAT or NET, respectively) and well-characterized ligands, [^125I]IPT and [^125I]IDAM, the binding affinity of each transporter was evaluated.

[2] = target: T2, DAT (dopamine transporter) (Rattus norvegicus, UniProt P23977); assay: In vitro binding assay, LLC-PK1 cell membranes overexpressing DAT, [125I]IPT; details: LLC-PK1 membrane homogenates, mean ± SEM of three determinations
T2 construct: expressed in transfected cells; host or cells: LLC-PK1
Description: as §1, §2

[3] = target: T3, NET (norepinephrine transporter) (Homo sapiens, UniProt P23975); assay: In vitro binding assay, LLC-PK1 cell membranes overexpressing NET, [125I]IPT; details: LLC-PK1 membrane homogenates, mean ± SEM of three determinations
T3 construct: expressed in transfected cells; host or cells: LLC-PK1
Description: as §1, §2

SERT [4] = target: SERT (Homo sapiens, UniProt P31645); details: Oya et al. 2001; Huang et al. 2001b; read-out: Ki SERT (literature); cited from earlier work
SERT [5] = target: T4, SERT (Rattus norvegicus, UniProt P31652); details: rats, cited from earlier work
T4 construct: from tissue; host or cells: rat brain in vivo (hypothalamus, striatum, hippocampus, cerebellum)

[6] = cited from earlier work
[7] = Biodistribution of 4-[18F]-ADAM (12a) in rats; assay type: in vivo
Excerpt: as §1

SERT [8] = target: T4, SERT; assay: Blocking studies of 4-[18F]-ADAM uptake in rat brain regions; assay type: in vivo, rats
Excerpt: as §1

[9] = In vivo metabolism of 4-[18F]ADAM in rats
Excerpt: as §1

SERT [10] = assay: Baboon study of 4-[18F]-ADAM
[11] = LLC-PK1 membrane homogenates, [125I]IDAM, mean ± SEM of three determinations

T2 sequence (P23977 whole entry): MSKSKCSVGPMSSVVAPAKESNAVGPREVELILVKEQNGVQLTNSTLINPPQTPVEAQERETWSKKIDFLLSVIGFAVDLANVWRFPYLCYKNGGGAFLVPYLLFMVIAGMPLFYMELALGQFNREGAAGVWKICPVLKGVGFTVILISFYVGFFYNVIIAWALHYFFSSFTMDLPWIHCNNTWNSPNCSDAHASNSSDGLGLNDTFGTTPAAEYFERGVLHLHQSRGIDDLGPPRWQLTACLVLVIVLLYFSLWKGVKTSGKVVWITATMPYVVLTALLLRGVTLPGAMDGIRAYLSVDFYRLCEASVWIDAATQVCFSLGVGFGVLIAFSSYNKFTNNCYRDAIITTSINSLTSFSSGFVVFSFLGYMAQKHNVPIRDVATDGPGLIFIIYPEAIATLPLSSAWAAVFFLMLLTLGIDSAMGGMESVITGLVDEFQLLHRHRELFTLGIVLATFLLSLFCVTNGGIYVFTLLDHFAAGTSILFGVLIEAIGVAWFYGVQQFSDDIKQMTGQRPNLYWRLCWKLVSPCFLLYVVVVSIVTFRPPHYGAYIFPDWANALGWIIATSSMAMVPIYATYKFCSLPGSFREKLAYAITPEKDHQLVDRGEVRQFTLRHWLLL

Compound: 2-(4-Chloro-5-fluoro-2-nitro-phenylthio)-N,N-dimethyl-benzenethanamine [Compound 21]
Ki [1, 11]: 4.16 ± 0.33 nM
Binding affinity and selectivity [1]: good binding affinity and selectivity
Ki [2]: 31900 nM
Ki [3]: 2810 nM

Compound: CN(C)Cc1ccccc1Sc1ccc(I)cc1CF [F-IDAM]
Ki (SERT [4]): 0.003 nM
Brain uptake and binding properties (SERT [5]; Oya et al., 2001): excellent initial brain uptake and binding properties
Defluorination in baboon [6]: defluorinated rapidly

Compound: CN(C)Cc1ccccc1Sc1ccc(CF)cc1N [AFM]
Ki (SERT [4]): 1.8 nM

Compound: CN(C)Cc1ccccc1Sc1ccc([18F])cc1N [Compound 12a, N,N-Dimethyl-2-(2-amino-4-[^18F]fluorophenylthio)benzylamine]
Uptake in rat brain ([7]; preliminary biodistribution study in rats): ~1 %/g
Initial uptake in blood, muscle, lung, kidney and liver ([7]; rats): also high, but it cleared rapidly
Radioactivity in the femur (in vivo defluorination) ([7]; rats): increases with time
Brain uptake ([7]; rats, 2 min after i.v. injection): 2.13 % dose/organ
Brain uptake ([7]; rats, 30 min after i.v. injection): 1.90 % dose/organ
Brain uptake ([7]; rats, 60 min after i.v. injection): 0.95 % dose/organ
Specific binding, hypothalamus-cerebellum/cerebellum ([7]; rats, 2 h post-injection (peak)): 12.49
Time of peak specific binding ([7]; rats, post-injection): 2 h
Uptake in hypothalamus, hippocampus and striatum after pretreatment (SERT [8]; rats pre-treated with methylphenidate): no significant changes
Uptake in hypothalamus, hippocampus and striatum after pretreatment (SERT [8]; rats pre-treated with nisoxetine): no significant changes
Uptake in hypothalamus, hippocampus and striatum after pretreatment (SERT [8]; rats pretreated with (+)McN 5652, 2 mg/kg 5 min prior to IV injection): significant decreases
Radioactivity recovered as parent compound, brain ([9]; rat brain): > 96%
Radioactivity recovered as parent compound, plasma ([9]; rat plasma): < 7%
Uptake in the skull (in vivo defluorination) (SERT [10]): did not increase with time

Ki ([1]; […]): 0.081 nM
melting point: 56 to 58 °C
Compound: CN(C)Cc1ccccc1Sc1ccc(F)cc1N [Compound 12, N,N-Dimethyl-2-(2-amino-4-fluorophenylthio)benzylamine]
Brain uptake and specific binding (SERT [5]; 11C-labelled, Huang et al., 2001b): excellent brain uptake and a high degree of specific binding

Compound: 2-(5-Amino-4-chloro-2-nitro-phenylthio)-N,N-dimethyl-benzamide [Compound 18]
Ki [1, 11]: 2.39 ± 0.54 nM
Binding affinity and selectivity [1]: good binding affinity and selectivity
Ki [2]: 3050 nM
Ki [3]: 15000 nM

Ki [1, 11]: 0.05 ± 0.01 nM
Binding affinities to the other monoamine transporters, fold lower than SERT ([1]; SERT versus DAT and NET): more than 1000 fold
Ki [2]: 3020 nM
Compound: CN(C)Cc1ccccc1Sc1cc(F)c(Cl)cc1N [Compound 25]
